Assay results published in publication PMC4336329 (PLoS ONE, 2015).
About 14,000 (4.5%) of roughly 310,000 compounds showed an effect of 50% or more. Effects have a minus sign here. The list shows a part of the results.

What follows are molecules tested against human ether-à-go-go-related gene (hERG) potassium channel (human, UniProt Q12809) (assay: primary screen, population patch clamp on CHO cells stably expressing hERG).
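Also: peak tail current of the secondary pulse compared with the same well before compound.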

Sequence of human ether-à-go-go-related gene (hERG) potassium channel (Q12809 whole entry, looked up): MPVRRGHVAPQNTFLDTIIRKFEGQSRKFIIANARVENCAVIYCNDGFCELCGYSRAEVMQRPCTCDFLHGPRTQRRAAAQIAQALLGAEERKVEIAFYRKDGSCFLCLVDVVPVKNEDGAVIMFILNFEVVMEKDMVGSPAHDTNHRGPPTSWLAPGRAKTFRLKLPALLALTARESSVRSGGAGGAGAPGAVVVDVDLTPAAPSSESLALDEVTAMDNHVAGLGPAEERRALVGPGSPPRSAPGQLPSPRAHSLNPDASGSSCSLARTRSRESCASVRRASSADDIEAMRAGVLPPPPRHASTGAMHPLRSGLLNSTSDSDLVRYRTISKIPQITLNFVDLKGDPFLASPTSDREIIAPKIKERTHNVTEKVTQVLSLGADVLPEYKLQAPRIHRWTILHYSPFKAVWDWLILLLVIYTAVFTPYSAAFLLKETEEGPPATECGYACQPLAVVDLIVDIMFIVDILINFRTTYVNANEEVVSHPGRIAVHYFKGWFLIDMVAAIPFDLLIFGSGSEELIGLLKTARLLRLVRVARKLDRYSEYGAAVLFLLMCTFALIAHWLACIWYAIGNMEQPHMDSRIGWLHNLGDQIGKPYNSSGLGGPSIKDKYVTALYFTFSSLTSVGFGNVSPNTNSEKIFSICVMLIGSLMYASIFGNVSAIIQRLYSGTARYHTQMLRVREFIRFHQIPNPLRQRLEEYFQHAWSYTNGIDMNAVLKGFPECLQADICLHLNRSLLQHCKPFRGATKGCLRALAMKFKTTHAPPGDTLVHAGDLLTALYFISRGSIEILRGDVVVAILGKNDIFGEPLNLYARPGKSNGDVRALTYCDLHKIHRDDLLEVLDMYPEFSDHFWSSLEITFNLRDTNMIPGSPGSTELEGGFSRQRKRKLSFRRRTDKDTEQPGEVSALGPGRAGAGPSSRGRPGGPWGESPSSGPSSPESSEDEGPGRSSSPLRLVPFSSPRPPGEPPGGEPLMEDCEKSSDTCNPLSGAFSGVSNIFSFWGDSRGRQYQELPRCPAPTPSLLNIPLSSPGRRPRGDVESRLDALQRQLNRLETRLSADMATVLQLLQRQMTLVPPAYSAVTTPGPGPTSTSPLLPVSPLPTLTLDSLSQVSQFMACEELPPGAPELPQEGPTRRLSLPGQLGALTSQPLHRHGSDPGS

| SMILES | hERG current change (%, negative = inhibition) at 10uM |
| --- | --- |
| CC12c3ccccc3C(c3ccccc31)C1C(=O)N(c3ccncc3)C(=O)C12 (stereo not drawn) | 5.22% |
| Cc1cc(OCC(=O)Nc2ccc(CN3CCCCC3)cc2)ccc1Cl | -73.9% |
| CC1CCCCC12NC(=O)N(CC(=O)OCc1cccc(F)c1)C2=O (stereo not drawn) | -2.4% |
| COc1ccc(N2C(=O)NC3CC2(C)Oc2ccccc23)cc1 (stereo not drawn) | 5.59% |
| O=C(NCC1CCCO1)C1C2C=CC3(CN(Cc4cccs4)C(=O)C13)O2 (stereo not drawn) | -9.26% |
| CCOc1cc(C2C3=C(CCCC3=O)NC3=C2C(=O)CCC3)cc(Cl)c1O | -12.5% |
| CN1CCN(CC(O)COc2ccc(S(=O)(=O)N3CCOCC3)cc2)CC1 (stereo not drawn) | 8.09% |
| CS(=O)(=O)Nc1ccc(C(=O)NCCSCc2ccccc2)cc1 | -45.1% |
| CCN(CC)CCNc1ccc2nnc(CCNS(=O)(=O)c3ccc(C)cc3)n2n1 | 15% |
| Cc1ccc(-c2ccc(=O)n(CC(=O)NCCN3CCCCC3C)n2)cc1 (stereo not drawn) | 0.96% |
| Cc1cc(NC(=O)CC2(CC(=O)O)CCCC2)n(C)n1 | 14.3% |
| CC(C)COC(=O)c1ccc2c(c1O)C(=O)c1ccccc1C2=O | -4.08% |
| COc1cc(C(=O)Nc2ccc(O)cc2)ccc1OC(C)=O | -6.49% |
| NC(=O)C1CCN(CCC(=O)Nc2ccc(F)c(F)c2)CC1 | 11.1% |
| CC(=O)Nc1ccc(C(=S)NCC2(N(C)C)CCCCC2)cc1 | 7.09% |
| O=C(c1ccccc1)c1ccc(OC(=O)N2CCCC2)cc1 | -11% |
| COc1ccc(NC(=O)C2CCCO2)cc1OC (stereo not drawn) | -0.381% |
| O=C(COc1ccccc1/C=C1/NC(=O)NC1=O)Nc1ccccc1 | 8.62% |
| CCOC(=O)CCNC(=O)Nc1ccc2nc(C)n(Cc3cccc(Cl)c3)c(=O)c2c1 | -18.2% |

| SMILES | hERG current change (%, negative = inhibition) at 10uM |
| --- | --- |
| CCC(C)c1ccccc1NC(=O)C(C)Sc1n[nH]c(N)n1 (stereo not drawn) | 14.5% |
| Cn1c(N)c(S(=O)(=O)c2ccc(Br)cc2)c2nc3ccccc3nc21 | 18.5% |
| CC(=O)c1ccc(S(=O)(=O)Nc2cccc(S(=O)(=O)NC3=NCCC3)c2)cc1 | 14.3% |
| O=C(CCC(=O)Nc1ccc(F)cc1)N/N=C/c1ccc(Br)cc1 | 15.9% |
| C=CCOc1ccc(CNCC2CCCO2)cc1.Cl (stereo not drawn) | 12.1% |
| COc1cc(NS(=O)(=O)c2cc3c(cc2C)NC(=O)CO3)cc(OC)c1 | -62.2% |
| CCN1CCCC1CN(Cc1cc2ccc(C)c(C)c2[nH]c1=O)C(=O)Nc1ccccc1OC (stereo not drawn) | -63.3% |
| COC(c1ccccc1)c1nnc(CCC(=O)N(C)CCOc2ccccc2)o1 (stereo not drawn) | 3.87% |
| CC(C)CCNC(=O)c1c(N)n(CC2CCCO2)c2nc3ccccc3nc12 (stereo not drawn) | -0.646% |
| COc1cc(/C=C2\N=C(c3ccccc3)OC2=O)ccc1OCc1c(C)no[n+]1[O-] | 3.47% |
| CCOc1ccccc1N1C(=O)c2ccc(S(=O)(=O)c3ccc(C(=O)O)cc3)cc2C1=O | 10.6% |
| COc1ccc(/C=C/C(=O)OCC(=O)c2ccc[nH]2)cc1 | 6.05% |
| CCCNC(=O)CCn1c(=S)oc2ccccc21 | -1.98% |
| CCOC(=O)CNC(=O)CSc1nc2cccnc2n1Cc1ccccc1 | -53.9% |
| CCOc1ccc(-c2cn(-c3ccccc3OC)c(=S)[nH]2)cc1 | 12.3% |
| c1ccc(NC2=NCCN2CCCC2CCCCC2)cc1 | -47.6% |
| CC1CCCN(C(=O)CCCC(=O)N2CCCC(C)C2)C1 (stereo not drawn) | 0.329% |
| O=C(NCCc1ccccn1)c1nc(Cn2ccc([N+](=O)[O-])n2)no1 | -2.95% |
| COc1ccc(C2C3=C(CC(C)(C)CC3=O)Nc3cc4c(cc32)OCO4)cc1 (stereo not drawn) | -13% |

| SMILES | hERG current change (%, negative = inhibition) at 10uM |
| --- | --- |
| Cc1ccccc1-n1nnnc1SCC(=O)Nc1ccc(N2CCN(C)CC2)cc1 | -35.8% |
| O=C(O)c1nn(CC(=O)N(C2CCCCC2)C2CCCCC2)c(=O)c2ccccc12 | -0.247% |
| COc1ccc(-c2cc(-c3ccccc3)nc(-c3ccc4c(c3)NC(=O)CO4)c2)cc1 | -1.62% |
| N#CCCN(Cc1cccnc1)C(=S)NC(=O)C1CC1 | 16.8% |
| COc1ccc(C(=O)C2CCCN(Cc3cccc4c3OCO4)C2)cc1OC (stereo not drawn) | -73.8% |
| Cc1ccccc1OCC(=O)N/N=C/c1c(C)nn(-c2ccccc2)c1Cl | 1.74% |
| O=C(NCc1cccnc1)c1ccc(N2CCOCC2)c([N+](=O)[O-])c1 | -5.49% |
| Cc1nc2scc(C)n2c(=O)c1S(=O)(=O)N1CCN(c2ccccc2F)CC1 | -33.6% |
| C=CCn1c(O)c(C(C)=Nc2ccc(NC(C)=O)cc2)c(=O)[nH]c1=O | 3.28% |
| CCOc1cccc2sc(NC(=O)CCS(=O)(=O)c3ccccc3)nc12 | 7.94% |
| COc1ccc(/C=C/CN2CCC(Oc3ccc(C(=O)N4CCCCC4)cc3)CC2)cc1 | -53.6% |
| Cc1cc(NC(=O)CSc2c[nH]c3ccccc23)no1 | -16.9% |
| COc1ccc(Sc2nc(-c3ccccc3)ncc2C(=O)O)cc1 | 9.35% |
| COc1ccccc1CNC(=O)C1CCN(S(=O)(=O)c2ccc3c(c2)CC(C)N3C(=O)C2CC2)CC1 (stereo not drawn) | 3.51% |
| CC(C)NC(=O)c1ccc2c(=O)n(Cc3ccco3)c(=S)[nH]c2c1 | 5.96% |
| O=C(Nc1ccc2nsnc2c1)N1CCCCCC1 | -3.71% |
| COc1cc2c(cc1OC)C1=C(C#N)CCC(=O)N1CC2 | 5.55% |
| Cc1ccc(NC(=O)CCl)c(C)c1 | 21.6% |
| O=C(CSC(=S)N1CCCC1)c1cc(Br)cc(Br)c1O | 19.2% |
